Test results published in the supplement of paper PMC3334620.
The full ranking holds about 33,000 sequences; the median of “E-score (-0.5 to 0.5)” is about -0.013, and the highest 2% start at about 0.3. Some of the results follow.

The sequences below were run against T1, Msn1 (UniProt P22148) (assay: PBM E-score (8-mer binding enrichment) (E-score (-0.5 to 0.5)); higher = stronger / more preferred TF binding; most listed sequences are background and not binding sites). Settings: protein concentration: 200 nM; construct: GST-full length.
T1 sequence: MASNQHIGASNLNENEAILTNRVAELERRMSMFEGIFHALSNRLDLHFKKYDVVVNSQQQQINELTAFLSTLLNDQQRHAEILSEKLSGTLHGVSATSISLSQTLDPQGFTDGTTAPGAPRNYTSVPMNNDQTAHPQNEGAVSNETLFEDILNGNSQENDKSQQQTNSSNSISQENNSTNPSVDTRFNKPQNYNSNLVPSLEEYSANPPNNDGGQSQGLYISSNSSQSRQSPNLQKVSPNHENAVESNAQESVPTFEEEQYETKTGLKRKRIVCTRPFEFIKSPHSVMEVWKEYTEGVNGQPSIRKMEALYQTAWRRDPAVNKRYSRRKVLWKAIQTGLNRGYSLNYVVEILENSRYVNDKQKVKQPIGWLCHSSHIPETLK
Summary of the method: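 E-scores (a modified Wilcoxon-Mann-Whitney statistic) were assigned by the Universal PBM Analysis Suite to every ungapped eight-base word pooled with its reverse complement. The input came from universal all-10-mer Agilent arrays made double-stranded by primer extension and probed with GST-tagged yeast transcription factors at about 100-200 nM. Fluorescent anti-GST detected bound protein, and masliner normalised the scans.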

Sequence | PBM E-score
GGGAGCTA | -0.213
CGTACGCC | -0.0682
ATGAAGAC | 0.231
TAGCTGGA | -0.299
AACTTTAA | 0.117
AAGGATCA | 0.0436
AAAAATTA | 0.253
CTGTCACA | 0.0788
GAAAGCCA | -0.0639
ATGCGTGC | -0.0193
GAATTGCC | 0.0969
ATATTCCC | 0.0634
GCAAAGGA | 0.0453
ACATACCC | 0.136
ATCAACTA | 0.175
CAAGAGGA | 0.0591
GACCAACC | -0.0749
AAAGCAGA | 0.0657
CGCCAGCG | -0.278
AAGGTTTA | -0.234
TTGTGAAA | 0.0831
ACATGATC | -0.00083
ACGGAAGC | 0.0447
CACCCTGC | -0.236
GCATTCCC | -0.188

Sequence | PBM E-score
TACCTCAA | 0.145
ATCTTCTA | 0.00981
AAGGGTCA | -0.0391
GATTTGGA | -0.0689
CATAAATC | 0.115
GAGTAACA | 0.135
CCGGGAAA | 0.0237
AAAGCATG | -0.0693
ATTATGCA | -0.0208
GGGAGGGA | -0.0955
GCTCTCCC | -0.29
AAAATATT | 0.156
ATGTCCGA | 0.475
AGTGGACC | -0.0955
AATGGGGC | -0.106
CAGGGATG | -0.213
CTGTAACC | -0.00985
CGATTTAA | 0.0978
CATTAAAC | 0.182
AAGGAAAC | -0.168
ACCCAGTG | -0.173
GACGGGAC | -0.014
GAATCCAA | -0.116
ACACACTA | 0.00839
ATCCAACG | -0.0894

Sequence | PBM E-score
AATGCATT | 0.244
AACCATGA | 0.137
CAGGTTAC | 0.0278
CGGAGAGA | -0.0276
CAGGATGG | -0.225
AGGCGAAA | -0.11
TAGCGATA | -0.0209
GGGCGAAC | -0.00029
CGGGCGAA | 0.0145
GTCGGTTA | 0.0371
ACATTGGC | -0.0178
ACCGTCGT | 0.142
CATCTTCC | 0.168
CACCGGAC | 0.131
CTATTTCA | 0.0975
CTGGGCTA | -0.198
AAATCATA | 0.167
CGCCAGGA | -0.0604
AGCGACGG | -0.0465
ACGAGCAG | -0.0648
AAGCGAAC | -0.129
ATACGACC | -0.0618
CGCGCTCA | -0.0403
ACGCCGTA | -0.0147
ACAACACT | 0.105

Sequence | PBM E-score
CCAAATAC | -0.058
CTCGGAAA | 0.115
CTTGCAGA | -0.0567
GGATGTTA | -0.0664
CAAGCATA | -0.105
CTATAATA | 0.016
AGGGGTAT | -0.193
GTCGCGGA | 0.121
AACATAGC | 0.13
CACATCCA | -0.0341
GCATAGGC | -0.256
CCAGCGGA | -0.171
ACTAAATA | 0.293
CGATAGCG | -0.188
ACGCATGC | 0.0965
CCCTCTTA | -0.0513
CAACGTAC | 0.00734
AAGGCTTG | -0.0455
ACAGCCCT | -0.239
GTTATCTA | -0.0355
CGACATCG | 0.0697
CTCTCACC | -0.131
GACCAGCA | -0.0149
AACACCGT | -0.0207
AGGGTTCG | -0.165

Sequence | PBM E-score
TCCTTGAA | 0.112
ACGGATAT | 0.0858
CCAGGTCC | -0.183
TATTGACA | -0.0167
AGCGCGAA | 0.0717
CTGCGGAA | -0.0023
GATATTCA | 0.124
GCCCCCCC | -0.408
AATTAGCT | -0.139
ACCACGGG | -0.129
AATTTTAC | 0.177
CCAAAAAG | 0.126
GTGTTATA | 0.118
GGAGGCTA | -0.265
CCCAAGGC | -0.0901
GTTGGGTA | -0.0801
ATAATCGC | 0.0651
CCCGCCGA | -0.168
ACATTAAG | 0.32
ACCGGTTA | 0.085
CATAACCC | -0.111
AGAAACAA | 0.222
CTTGCAAA | 0.0128
GAATTGTA | 0.151
CAGATGCA | -0.34

Sequence | PBM E-score
AACCACGA | -0.0849
GCTTCGGA | 0.142
CCGTTCGA | -0.0871
CGCGGCTC | -0.00316
CTGCAGAA | 0.136
GATTATGA | 0.126
CAAGTTCA | 0.158
CCTTAAAG | -0.018
CCGTGGCG | -0.211
ATACAGAA | 0.203
CATGGCGG | -0.248
CATTTAGG | 0.138
AGCTGGTG | -0.111
TGGTGGAA | 0.00587
AACACTCA | -0.00135
AGGAGCCA | -0.23
ACAGGCCG | 0.0698
GAGTACTC | 0.00194
GCAGTGTA | -0.0481
AGTCTCCG | 0.159
GAAAAATA | 0.187
AAGGACAT | 0.49
GCTGCCAC | -0.149
ACTGACGA | 0.0858
AGATACTC | -0.0218

Sequence | PBM E-score
ACATCGCG | 0.0812
TAAGTTAA | -0.0568
CCTGCCGC | -0.181
TCGGTAAA | 0.134
GATTGTGC | -0.0365
ACCAGCTC | -0.103
CGTCAACG | -0.179
CCTGGATA | -0.127
ATGCCCGG | -0.043
AAAATCCT | 0.115
ATCCTTTG | 0.075
CCGCCGCG | -0.00962
ACCTTTTA | -0.141
GTATGCAC | 0.07
CACTTTTC | 0.136
GATCGGCC | -0.0564
CGTGTACA | 0.277
CACTTTAA | 0.155
AGATTCGC | -0.0289
ATACCACG | 0.00303
ATGGCGTG | 0.0499
CTAATTTA | 0.259
